Data published in PubChem BioAssay AID1159614 (National Center for Advancing Translational Sciences (NCATS), 2016).
In all, about 45,000 compounds went through this assay and about 65 (0.1%) were called active. Calls follow the shape of the dose curve; as a rule, active = well fitted activation curve with a large enough effect; inconclusive = small, poorly fitted or top-dose-only effect; inactive = no such curve, though single readings can be large or run the other way. This is one part of the list.

biological target: Galactocerebrosidase (Homo sapiens) (UniProt P54803); assay: A Novel Cell-Based Assay to Identify Small Molecules for B -Galactocerebrosidase; conditions: 145M-Twi-hGALC-G270D cells (Twitcher mouse brain line with human GALC G270D), HMU-beta-Gal fluorescence, 48 h; series mostly up to 57.5 µM; activation: at the top concentration; also: 0% is about no effect; nearly all actives have a fitted effect of over 65% in size
Summary of the method: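 Fluorogenic HMU-b-Gal hydrolysis (0.1 mM final, pH 5.2 citrate-phosphate with 1 mg/mL sodium taurocholate; carbonate stop buffer) measures mutant GALC activity after compound treatment of live 145M-Twi Twitcher brain cells stably carrying human GALC-G270D, with wild-type GALC line alongside; activation sought.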

Sequence of UniProt P54803 (P54803 whole entry, looked up): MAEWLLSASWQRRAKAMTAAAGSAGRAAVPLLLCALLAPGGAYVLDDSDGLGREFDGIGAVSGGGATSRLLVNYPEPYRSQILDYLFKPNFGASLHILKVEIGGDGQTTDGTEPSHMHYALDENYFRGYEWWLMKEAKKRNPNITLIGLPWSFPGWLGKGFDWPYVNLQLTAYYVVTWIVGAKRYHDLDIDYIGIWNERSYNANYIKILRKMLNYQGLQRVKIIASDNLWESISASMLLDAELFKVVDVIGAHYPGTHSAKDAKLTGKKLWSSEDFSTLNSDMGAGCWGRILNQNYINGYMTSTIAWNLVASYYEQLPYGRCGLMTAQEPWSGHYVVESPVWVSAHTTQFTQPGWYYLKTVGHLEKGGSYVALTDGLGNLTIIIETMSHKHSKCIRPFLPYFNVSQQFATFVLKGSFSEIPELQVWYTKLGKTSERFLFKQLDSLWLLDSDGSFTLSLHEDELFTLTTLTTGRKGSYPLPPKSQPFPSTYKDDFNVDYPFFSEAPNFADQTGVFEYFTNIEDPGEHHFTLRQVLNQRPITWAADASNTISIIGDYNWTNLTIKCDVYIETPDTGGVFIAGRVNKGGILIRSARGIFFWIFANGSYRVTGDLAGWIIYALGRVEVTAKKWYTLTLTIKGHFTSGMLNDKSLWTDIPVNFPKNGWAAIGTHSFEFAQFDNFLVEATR

Compound | activation
COc1ccc(-c2cc(C(C)=O)c(C)n2CCC(=O)Nc2ccc(C)c(Cl)c2)cc1 | inactive: -12.4%
COc1ccc(OC)c(CNc2ncnc3c2nc2n3CCCC2)c1 | inactive: -6.59%
CCc1c(C)nc(SCc2nc(-c3ccccc3C)no2)[nH]c1=O | inactive: 7%
CCN(C(=O)Cc1c(C(=O)O)c(C)cn1C)c1cccc(Cl)c1 | inactive: -7.12%
CCc1ccc(Nc2nnc(-c3cc4cc(OC)ccc4oc3=O)s2)cc1 | inactive: -5.94%
Cc1ccc(NC(=O)c2c(C)oc3ccc(O)c(CN(C)Cc4ccccc4)c23)c(C)c1 | inactive: -19%
CC(=O)Nc1ccc(Nc2c(CCC(C)C)c(C)c(C#N)c3nc4ccccc4n23)cc1 | inactive: 1.46%
CCOc1ccc(S(=O)(=O)c2c(C(=O)c3ccc(C)c(C)c3)cnc3ccccc23)cc1 | inactive: -17.8%
Cc1ccc(CNC(=O)CCc2nnc3n(C)c(=O)c4sccc4n23)cc1 | inactive: -3.38%
Cc1ccc(NC(=O)c2sc3nc(-c4ccncc4)ccc3c2N)cc1 | inactive: -12.4%
COc1cc(NC(=O)C(NS(=O)(=O)c2ccc3c(c2)CCCC(=O)N3)C(C)C)cc(OC)c1 (stereo not drawn) | inactive: -1.12%
COC(=O)c1sccc1S(=O)(=O)N(CC(=O)Nc1ccc(C)c(F)c1)c1ccc(C)c(C)c1 | inactive: 4.8%
Cc1ccccc1Cn1c(=O)n(CCc2ccccc2)c(=O)c2sc3ccccc3c21 | inactive: 9.65%
Cc1ccccc1C(=O)Nc1nnc(S(=O)(=O)N(C)c2ccc(Cl)cc2)s1 | inactive: 6.13%
CC(=O)N[C@@H](CC(C)C)C(=O)O | inactive: -7.6%
CCOC(=O)c1ccc(NC(=O)N2CCOc3ccccc32)cc1 | inactive: -20%
COCCCNC(=O)C(=O)Nc1c2c(nn1-c1cccc(Cl)c1)CSC2 | inactive: -12.1%
Cc1cc(Br)ccc1NC(=O)C1CCN(S(=O)(=O)c2cccc3nsnc23)CC1 | inactive: -2.08%
Cc1ccccc1-c1nnc(CN2CCN(c3ccccn3)CC2)o1 | inactive: -14.6%
COc1ccc(-c2noc(-c3ccc(N4CCN(C)CC4)c([N+](=O)[O-])c3)n2)cc1OC | inactive: -3.79%
COc1ccc(-c2oc3ncn4nc(COc5c(C)cccc5C)nc4c3c2-c2ccc(OC)cc2)cc1 | inactive: -26.9%
Cc1nn(C(=O)c2ccccc2F)c(C)c1S(=O)(=O)N1CCCCCC1 | inactive: -9.16%
CCCCCSc1nc2sc3c(c2c(=O)n1-c1ccccc1)CCN(C(C)=O)C3 | inactive: -1.84%
CCOc1ccccc1NC(=O)N1CCc2cc(S(=O)(=O)N3CCC(C)CC3)ccc21 | inactive: -10.3%

Compound | activation
CNC(=O)Cn1cc(S(=O)(=O)Cc2ccccc2F)c2ccccc21 | inactive: -4.42%
COC(=O)c1c(-c2cccs2)csc1NC(=O)COc1c(C)ccc(C)c1C | inactive: -19.6%
Cc1cccc(NC(=O)c2sc(-n3nc(C)c(Cc4ccc5c(c4)OCO5)c3C)nc2C)c1C | inactive: 3.6%
Cc1ccc(Cn2c(SCc3ccc(C(=O)N4CCCCCC4)cc3)nc3ccncc32)cc1 | inactive: -2.06%
COc1ccccc1NC(=O)c1sc2nc(N3CCOCC3)c3c(c2c1N)CC(C)(C)OC3 | inactive: -19.4%
Nc1nc(Cl)nc2c1ncn2[C@@H]1O[C@H](CO)[C@@H](O)[C@@H]1F | inactive: -12.9%
Cn1nnnc1SCCCNCc1ccccc1OCc1ccccc1Cl | inactive: -13.3%
COc1ccc(-c2noc(CSc3nnc(C)n3-c3ccc(OC)cc3)n2)cc1 | inactive: -12.6%
Cc1ccc(NC(=O)CSc2ncc3c(n2)-c2ccc(Cl)cc2N(C)S3(=O)=O)cc1F | inactive: -18.8%
COc1cccc(NC(=O)N2CCN3CCCCC3C2)c1 (stereo not drawn) | inactive: -6.61%
CCCOC(=O)CSc1ncnc2sc3c(c12)CCC(C)C3 (stereo not drawn) | inactive: -22.1%
COc1ccc(-c2cc(C)no2)cc1S(=O)(=O)NC(C)C | inactive: -6.41%
COc1ccc(CN2CCc3nc(SCC(=O)Nc4cc(C)cc(C)c4)[nH]c(=O)c3C2)cc1 | inactive: -12.6%
COc1ccc(-c2noc(Cn3c(=O)c4ccccc4n(CC(=O)Nc4cccc(OC)c4)c3=O)n2)cc1 | inactive: -12.9%
COc1cc(OC)cc(N2C(=O)N(CC(=O)c3ccc(F)cc3)c3ccccc3S2(=O)=O)c1 | inactive: -0.6%
Cc1cccc(Cn2c(=O)n(CC3CCC(C(=O)N4CCOCC4)CC3)c(=O)c3sccc32)c1 (stereo not drawn) | inactive: -14.7%
CCOC(=O)c1ccc(NC(=O)c2oc(=O)c3ccccc3c2-c2ccccc2)cc1 | inactive: -8.41%
COc1ccccc1-c1nc2c(c(SCC(=O)Nc3c(C)cc(C)cc3C)n1)Cc1c(CO)cnc(C)c1O2 | inactive: -21.2%
CCC(=O)N1CCc2cc(S(=O)(=O)CCC(=O)NCc3ccc(C)cc3)ccc21 | inactive: -6.5%
CCc1cccc(NC(=O)C(Cc2ccccc2)NS(=O)(=O)c2ccc3c(c2)oc(=O)n3C)c1 (stereo not drawn) | inactive: -13.8%
CCOC(=O)c1c(NC(=O)c2cc3nc(-c4ccc(OC)cc4)cc(C(F)(F)F)n3n2)sc2c1CCC(C)C2 (stereo not drawn) | inactive: -10.1%
CCCCOC(=O)c1ccc(NC(=O)Cn2nnc3sc4c(c3c2=O)CCCC4)cc1 | inactive: -24%
O=C(NCc1cccs1)c1ccc(Cn2c(SCc3cccc(F)c3)nc3cccnc32)cc1 | inactive: -7.03%
CCOc1ccc(CCNC(=O)c2ccc(Nc3nc4ccccc4n4nnnc34)cc2)cc1OCC | inactive: -0.275%
